Laboratory results reported in the RNAGym collection of RNA variant scans (doi:10.1073/pnas.2313332121).
This sample is rich in variants without activity.

B1: TPR 5TU (parent)
chain: GGAUCUUCUCGAUCUAACAAAAAAGACAAAUCUGCCACAAAGCUUGAGAGCAUCUUCGGAUGCAGAGGCGGCAGCCUUCGGUGGCGCGAUAGCGCCAACGUUCUCAACUAUGACACGCAAAACGCGUGCUCCGUUGAAUGGAGUUUAUCAUG

Variants of: B1
Assay: polymerase ribozyme fitness, log enrichment relative to wild type (log ratio); higher = more active; in vitro selection for triplet polymerase activity
Method in brief: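 Both subunits of a heterodimeric triplet polymerase ribozyme were given their own mutant library, built by PCR and transcribed. Each library was annealed with a biotinylated primer, the partner subunit and triplets, incubated frozen at −7 °C, and its extended constructs gel-excised, captured on streptavidin beads and amplified by RT-PCR, all in one round done in triplicate. Fitness is the logarithm of genotype enrichment relative to wild-type enrichment, with replicates averaged by inverse-variance weighting. That logarithm is base 2, and Illumina-sequenced genotypes needed ≥10 input reads and ≥1 read per output.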

| Variant | polymerase ribozyme fitness (log ratio) |
| --- | --- |
| A39G A41G A49C C85G A107G A147U | ≤ -4.2 |
| C38A U145C | -0.328 |
| C38U U55G G84C A98U | -1 |
| C38A G94A C123U | -0.611 |
| C38U A120U | -0.54 |
| C38U U55A A73G C95U A115U G124C | ≤ -4.2 |
| A39C G58C U90G C95G | ≤ -4.2 |
| A39U U53A A91G A97G U111G | -4.05 |
| C38U G68A G80U A89G A91C C93G A107U C118G | ≤ -4.2 |
| A40U A52G G100C | ≤ -4.2 |
| C38A G42C C87A C118U U139A G141C A147U | ≤ -4.2 |
| A40G A91G A115G C116G A142C | ≤ -4.2 |
| A39C C85A C118A | -3.96 |
| C38A A89C C93G C95G C108U U135C | ≤ -4.2 |
| A40U A91U U102A U104C U139A | ≤ -4.2 |
| A39G A41G A49G G83C U145A | -3.94 |
| A40C A52C G83A | -2.55 |
| A40U A89G A91U C93G A107G C123G C125A | ≤ -4.2 |
| A40C U53A C114A U144G | ≤ -4.2 |
| C38A A60G A73C C95A A115U A142U | ≤ -4.2 |
| A40U A41C C96U | -0.566 |

| Variant | polymerase ribozyme fitness (log ratio) |
| --- | --- |
| A40C A49C C57G G74C C87G A89G U104G | ≤ -4.2 |
| A39U A40G G62C G92U | ≤ -4.2 |
| A39C U53A G86C C105A A119U | ≤ -4.2 |
| A40G U53G U55A A66C G84U A89G C108U | ≤ -4.2 |
| A39U A64G C87A A98U U135G | ≤ -4.2 |
| A39G G42A A73G A106G G124A G126A G136U | ≤ -4.2 |
| C38U A73U C87A C118U | ≤ -4.2 |
| A39C A47G C76U G84A C103A A142C | ≤ -4.2 |
| A39C C96A U144G U148G | ≤ -4.2 |
| C38U C108G A110G U127A G136U | ≤ -4.2 |
| A39C A60G C87U A147C | -3.78 |
| C38U U61A A106C G141A | -3.01 |
| A39G U78G G112C G126U A147C | ≤ -4.2 |
| A40G A41G C63U C76A G83C G124A | ≤ -4.2 |
| C38U U55A C87G C108G G112U G133U C149A | ≤ -4.2 |
| A40C G143A | -0.684 |
| A40U A49G C63U C87U A107U G117C G133A U135A | ≤ -4.2 |
| A40C A89C C93G U102G C103A U145G | ≤ -4.2 |
| A40C U82G A89G | 0.203 |
| A40C G62U C72A G80A C118G | ≤ -4.2 |
| A40C U90G U139A | ≤ -4.2 |

| Variant | polymerase ribozyme fitness (log ratio) |
| --- | --- |
| A39G G50C C51G G58A C93G U139G | ≤ -4.2 |
| C38A C72A U101G U144A | ≤ -4.2 |
| C38A G59A A64C C93U | ≤ -4.2 |
| A40G A60C G88A C103A | ≤ -4.2 |
| A40G G81A G88C | ≤ -4.2 |
| C38G U56G C72A A91U A107C G117A U148A | ≤ -4.2 |
| A40C G70A | -2.97 |
| A40U A47C A66C C76U C93A A98G C99G U104C A150U | ≤ -4.2 |
| A40C G81A | 0.951 |
| A39U U101C U144G | -2.52 |
| A39G A49C C76G C99U C108G A110G U148C | ≤ -4.2 |
| C38U G50U U56A G74U C75G C125U U139A | ≤ -4.2 |
| C38U G84U C87G U144C C149G | ≤ -4.2 |
| A40G U55A G83A U104G | ≤ -4.2 |
| A40G C76U C95U C116G | -3.42 |
| A40C C96U A122G G124C | -0.809 |
| A40C G50A C95U U148C | ≤ -4.2 |
| A39C C43A U45G A91G C93U | ≤ -4.2 |
| A40G G42C U44A G92C | ≤ -4.2 |
| A39G C54A U90C A142U | ≤ -4.2 |
| A39U A47G C95U A110G | -3.7 |

| Variant | polymerase ribozyme fitness (log ratio) |
| --- | --- |
| A39C G84A G143U | ≤ -4.2 |
| C38A U55A G94U C99G | -3.88 |
| A40C G86A G100U | ≤ -4.2 |
| A40U A49C G50A G65U C76G U78C A106C U111G A115G U127A A150C | ≤ -4.2 |
| A39U C76G G92U C108U | ≤ -4.2 |
| A39C A91U U148A | ≤ -4.2 |
| C38U A39C A60U | -3.28 |
| A40G G50A G70C G92C A98U U151A | ≤ -4.2 |
| A39U C75G C93A U102G | ≤ -4.2 |
| A39U G46A C93G A119U U139G | ≤ -4.2 |
| A40C C75A G92C A97U A121U | ≤ -4.2 |
| A40U C63U G70C | -2.97 |
| A40U A52G G94U U109C | ≤ -4.2 |
| A39C A52C U53A U55A C95U A98G | ≤ -4.2 |
| A40G C51U C87G G117U G133U | ≤ -4.2 |
| A40C G42C C69G C85A U104G G128C G133A | ≤ -4.2 |
| A40U C57A G86A A110U C125A G141U | ≤ -4.2 |
| C38G G92A C105G | ≤ -4.2 |
| C38U U44A C85A G117U C149G | ≤ -4.2 |
| A39G A40G A49C U146C | ≤ -4.2 |
